This is one part of the list. At the low end of the ranking the order means little.

The assay concerns the target SIX1-Q177R homeodomain (UniProt Q15475). In words: universal protein binding microarray. The settings on record: Universal all-10-mer PBM (8x60K, AMADID 030236), 300 nM GST-tagged protein, Alexa Fluor 488 anti-GST; buffer, salt, pH and temperature not stated; high values mean tight binding; most listed sequences are background and not binding sites; double strand, one strand shown.
As for GAATAGCA, the binding signal came to 0.0258 E-score.
The same measure for AATCTCAG: -0.146 E-score.
Regarding GCCCGTGA, the binding signal was -0.0769 E-score.
To AACAGCTG belongs -0.367 E-score.
To AAAACTGT belongs -0.268 E-score; to TAGAGGCA, -0.139 E-score; to CGAGTTAA, 0.0324 E-score.
As for GACACCTC, the binding signal amounted to 0.483 E-score.
The same measure for CGCACATC: -0.246 E-score.
The same measure for ACGGCGGC: -0.0774 E-score; for CTAACTGC: -0.309 E-score.
Consider CTAGGAAC, for which the binding signal was -0.195 E-score.
The same measure for ACCGGGTA: 0.212 E-score; for CACCTCCA: 0.293 E-score.
To GCCGGACA belongs 0.0328 E-score; to AAAATGGC, -0.264 E-score; to GGGCACCC, 0.0795 E-score.
With ATCTTCGA, the binding signal was -0.0712 E-score.
In the case of AGAATGCA, the binding signal is -0.136 E-score.
As to CGGTACCG, the binding signal is -0.0924 E-score.
The same measure for AGAGGGAA: -0.31 E-score; for ACGCATCC: -0.0157 E-score.
The same measure for GAGTTAGC: -0.0351 E-score; for AAATCGGT: 0.028 E-score; for CCGAGGTA: 0.0286 E-score.
To CATTTCCC belongs -0.101 E-score.
For AGCTTCTG, the binding signal was -0.273 E-score.
To ATTAACTG belongs -0.0563 E-score; to AACCTACC, 0.0817 E-score.
As for AGGTAGAG, the binding signal worked out at 0.0812 E-score.
The same measure for TAGACTCA: -0.0767 E-score.
The same measure for GTAAGTCA: -0.0629 E-score; for CTCACATC: -0.158 E-score.
In the case of ATTGGGCA, the binding signal was -0.156 E-score.
The same measure for CCCCAAAC: 0.197 E-score; for GCTAGTTA: -0.0567 E-score.
To ACGAGTCA belongs 0.0862 E-score; to ATTGAAGG, -0.0607 E-score.
With CCTAGTAG, the binding signal came to 0.0174 E-score.
The same measure for AGCCAGAA: -0.151 E-score; for CATTTCGC: -0.282 E-score; for GCGGTGCC: 0.11 E-score.
For the sequence AACCATAG, the binding signal is -0.178 E-score.
The same measure for CTTATTCC: -0.17 E-score.
The same measure for CTAAGGTA: -0.0464 E-score.
To AAGGCATA belongs -0.175 E-score.
Regarding AATGAGCA, the binding signal was -0.101 E-score.
To CGGGACAC belongs 0.42 E-score; to AAGAACAC, 0.423 E-score.
To ATGTCTAA belongs -0.24 E-score.
To GATCCGTA belongs 0.0371 E-score.
For the sequence ACAGATCG, the binding signal was -0.132 E-score.
To AGGTCCAC belongs -0.182 E-score.
To GGAAGCAC belongs 0.109 E-score; to CATCCTCA, -0.0451 E-score.
Turning to ATCTCTTC, the binding signal is -0.109 E-score.
The same measure for ACCGGCGT: 0.133 E-score.
For ACGGCACC, the binding signal was found to be 0.146 E-score.
TCCTCGCA: the binding signal is -0.116 E-score.
The same measure for CACCCCCC: 0.341 E-score.
For the sequence GATGGGAC, the binding signal was -0.259 E-score.
The same measure for CATCTAAG: -0.171 E-score; for CTTAGACA: 0.145 E-score.
To GTGGATAA belongs 0.0203 E-score.
The same measure for CGCTCAGA: -0.11 E-score.
For the sequence AGGCTTGC, the binding signal is -0.205 E-score.
In the case of AGAGTCAG, the binding signal is 0.125 E-score.
The same measure for GTCATAGA: -0.127 E-score; for ACCTAGAC: -0.0286 E-score; for CCCGATGA: 0.16 E-score.
The same measure for ATATACAT: -0.1 E-score; for CTTGCGCC: -0.054 E-score; for AAGACTGC: -0.261 E-score.
Turning to AGTGAATC, the binding signal was found to be 0.0443 E-score.
To AGATGACA belongs 0.165 E-score.
To ACTATTGC belongs -0.00475 E-score; to TGACAAAA, -0.229 E-score; to CTGCAACC, -0.00598 E-score.
To AAACGAAC belongs -0.0362 E-score; to TCCCCGGA, 0.0682 E-score.
For CCGATCGC, the binding signal was -0.144 E-score.
The same measure for ACAAGCGC: -0.086 E-score.
As to ATAAAATA, the binding signal was determined as 0.0895 E-score.
The same measure for AGAACTAC: -0.0342 E-score; for AATACCTC: 0.0743 E-score.
To GAAATTTA belongs -0.225 E-score; to ACAGCCAT, -0.0329 E-score; to AATCATCC, -0.22 E-score.
Turning to CTGCGTGC, the binding signal was 0.0965 E-score.
The same measure for AATATCCG: -0.02 E-score.
As for CGAGCGTA, the binding signal was -0.0884 E-score.
To GCACTTGA belongs 0.12 E-score; to GCACTACC, 0.0861 E-score.
The same measure for ACGTGTCG: 0.383 E-score; for ACGGTCAC: -0.0158 E-score.
Take CAGTTACA: the binding signal was -0.00257 E-score.
Turning to AGTCGAGA, the binding signal is -0.0567 E-score.
In the case of CTTTATGA, the binding signal was -0.0999 E-score.
The same measure for AACAATGG: -0.0219 E-score.
To GGGGATAC belongs 0.254 E-score; to CAGCCGCA, -0.266 E-score; to AGCTACAA, -0.0921 E-score.
To CACCTAAG belongs 0.263 E-score.
Regarding ACCAGGCG, the binding signal was 0.143 E-score.
The same measure for CGGTTCAA: -0.034 E-score; for CGTAGTTC: -0.174 E-score.
To CGGAAGAC belongs 0.129 E-score; to CTATTTAC, 0.174 E-score.
The same measure for AAGGCGTG: 0.0573 E-score; for ATGCCAGA: -0.143 E-score.
For the sequence CCTTTCTA, the binding signal is 0.0895 E-score.
Turning to CGCCTAAG, the binding signal was -0.217 E-score.
The same measure for AAGTAATT: -0.29 E-score; for GTCCGAGA: -0.181 E-score; for CACTCGGA: 0.177 E-score.
For the sequence ATAACTGA, the binding signal was -0.0851 E-score.
To ACGGTAAA belongs -0.194 E-score; to AATACTTA, -0.0981 E-score.
For the sequence AGATTGCG, the binding signal was -0.283 E-score.
On to GAAAAAGA, for which the binding signal was -0.122 E-score.
To GTAATCTA belongs -0.012 E-score; to GTCGTCCA, -0.107 E-score; to TTGCCCAA, -0.0843 E-score.
To ACCCTTCT belongs 0.113 E-score; to ATCGTACG, -0.147 E-score.
To ATCCGTGG belongs -0.00125 E-score; to CCATCCAA, 0.0652 E-score.
In the case of CGATGAGC, the binding signal was -0.0951 E-score.
To CAAAGCTA belongs -0.187 E-score.
On to ACCGTTTC, for which the binding signal was found to be 0.00664 E-score.
The same measure for TCTAGGAA: -0.223 E-score.
The same measure for GACGTAGC: -0.0396 E-score; for CATTTAGA: -0.114 E-score; for GCCCATCA: -0.117 E-score.
As to GCCTACGC, the binding signal amounted to 0.167 E-score.
The same measure for ATGGGCAA: -0.201 E-score; for GACTGTCC: -0.0035 E-score; for GGTGTAAA: 0.476 E-score.
The same measure for CGTTAATA: -0.0109 E-score.
TCGGCCCA: the binding signal was -0.114 E-score.
CTATCTTC: the binding signal is -0.212 E-score.
For GCTGCACC, the binding signal turned out to be 0.13 E-score.
To CTTCCAAA belongs -0.183 E-score.
The same measure for CTCTATAA: -0.193 E-score.
Turning to GAGCTATC, the binding signal is -0.2 E-score.
To ATTTTACA belongs 0.19 E-score; to AATATTCT, -0.0368 E-score; to AGCAGACG, -0.306 E-score.
In the case of GCAGTCCA, the binding signal was -0.206 E-score.
To TTCATAAA belongs -0.23 E-score.
To CCTCTGCA belongs -0.0751 E-score; to ACCTGTGA, 0.0256 E-score.
Consider ACCTAATG, for which the binding signal was 0.00106 E-score.
With GTGATATA, the binding signal was -0.00231 E-score.
The same measure for CCGGCCCA: -0.121 E-score.
The same measure for GGGCGACC: -0.17 E-score.
The same measure for GGCTATGA: -0.269 E-score.
TTAGATAA: the binding signal is -0.133 E-score.
Regarding ACCGCGCG, the binding signal is -0.00263 E-score.
The same measure for ATAACGCA: -0.176 E-score; for ACTTTCAG: 0.0215 E-score; for AAAGTCGG: -0.207 E-score.
To AACCCCCA belongs 0.209 E-score; to AGCATTGG, -0.0979 E-score.
Regarding CCGTATGC, the binding signal was determined as 0.0157 E-score.
The same measure for GCCTTTGA: -0.0366 E-score.
To CTACTCAA belongs 0.0598 E-score; to AGACGATA, -0.0676 E-score; to CATGTTTA, 0.00291 E-score.
The same measure for CAGGATAG: -0.0461 E-score.
As to ATGTACCG, the binding signal is -0.0954 E-score.
Turning to TGCCGACA, the binding signal is 0.177 E-score.

For the origin of these results see article PMC10668032.
